We go through 8 molecules from ChEMBL document CHEMBL5291721, “A preclinical secondary pharmacology resource illuminates target-adverse drug reaction associations of marketed drugs” (Nat Commun, 2023).

The target in assay [1] is Prostaglandin G/H synthase 1 (Rattus norvegicus, UniProt Q63921). In kind it is functional.
A further assay has as its target Progesterone receptor (Homo sapiens, UniProt P06401). In kind it is functional.
The target of the next assay is Androgen receptor (Rattus norvegicus, UniProt P15207). In kind it is functional.
For assay [2], the target named is Sodium-dependent serotonin transporter (Homo sapiens, UniProt P31645).
The target in assay [3] is 5-hydroxytryptamine receptor 2B (Homo sapiens, UniProt P41595). The assay is classed as functional, cell-based.
Assay [4] addresses 5-hydroxytryptamine receptor 2C (Homo sapiens, UniProt P28335).
Assay [5] concerns the target 3',5'-cyclic-AMP phosphodiesterase 4D (Homo sapiens, UniProt Q08499). The assay is classed as functional.
For assay [6], the target named is 5-hydroxytryptamine receptor 3A (Homo sapiens, UniProt P46098). The assay is classed as functional.
For assay [7], the target named is cGMP-inhibited 3',5'-cyclic phosphodiesterase 3A (Homo sapiens, UniProt Q14432). In kind it is functional.
Assay [8] concerns the target T1, D(3) dopamine receptor (Homo sapiens, UniProt P35462).
Assay [9] has as its target Delta-type opioid receptor (Homo sapiens, UniProt P41143).
The target in assay [10] is T2, Mu-type opioid receptor (Homo sapiens, UniProt P35372).
The target in assay [11] is Voltage-gated inwardly rectifying potassium channel KCNH2 (Homo sapiens, UniProt Q12809). The assay is classed as functional.
In assay [12] the target is Beta-1 adrenergic receptor (Homo sapiens, UniProt P08588). The assay is classed as functional.
Assay [13] concerns the target Beta-3 adrenergic receptor (Homo sapiens, UniProt P13945).
The target in assay [14] is T3, Histamine H3 receptor (Homo sapiens, UniProt Q9Y5N1).
Assay [15] addresses Kappa-type opioid receptor (Homo sapiens, UniProt P41145).
In assay [16] the target is Synaptic vesicular amine transporter (Rattus norvegicus, UniProt Q01827). The assay is classed as functional.
Assay [17] addresses T4, Sodium-dependent dopamine transporter (Homo sapiens, UniProt Q01959).
Assay [18] addresses Hydroxycarboxylic acid receptor 2 (Homo sapiens, UniProt Q8TDS4).
In assay [19] the target is T5, Sodium-dependent noradrenaline transporter (Homo sapiens, UniProt P23975).
In assay [20] the target is Sodium channel protein type 5 subunit alpha (Homo sapiens, UniProt Q14524). In kind it is functional, cell-based.
For assay [21], the target named is T4, Sodium-dependent dopamine transporter. The source holds these as a separate data set.
Assay [22] addresses T5, Sodium-dependent noradrenaline transporter. This is another data set of the same source.
The target of assay [23] is Voltage-dependent N-type calcium channel subunit alpha-1B (Rattus norvegicus, UniProt Q02294). The assay is classed as functional.
Another assay deals with Estrogen receptor (Homo sapiens, UniProt P03372).
The target in assay [24] is T6, Type-1 angiotensin II receptor (Homo sapiens, UniProt P30556).
In assay [25] the target is T6, Type-1 angiotensin II receptor. The source holds these as a separate data set.
In assay [26] the target is 5-hydroxytryptamine receptor 2A (Homo sapiens, UniProt P28223). In kind it is functional, cell-based.
The target in the next assay is Bile salt export pump (Homo sapiens, UniProt O95342). In kind it is functional.
Assay [27] concerns the target T2, Mu-type opioid receptor. The source holds these as a separate data set.
Assay [28] has as its target T1, D(3) dopamine receptor. The source holds these as a separate data set.
A further assay addresses Adenosine receptor A3 (Homo sapiens, UniProt P0DMS8).
Assay [29] has as its target Alpha-2A adrenergic receptor (Homo sapiens, UniProt P08913).
In assay [30] the target is T3, Histamine H3 receptor. This is another data set of the same source.
Further: assay procedure not described here.

On to `COc1cc(OC)cc(N(CCNC(C)C)c2ccc3ncc(-c4cnn(C)c4)nc3c2)c1` [ERDAFITINIB], for which the AC50 in [1] was over 30 µM; on Progesterone receptor, over 30 µM; on Androgen receptor, over 30 µM; in assay [2], 2300 nM; in assay [3], over 30 µM.
On to `CCN(Cc1ccncc1)C(=O)C(CO)c1ccccc1` (stereo unspecified) [TROPICAMIDE], for which the AC50 in assay [4] is over 30 µM; in assay [5], over 30 µM; in assay [6] it was over 30 µM; in assay [7], over 30 µM; on D(3) dopamine receptor [8], over 30000 nM; in [9], over 30 µM. The concentration at half-maximal activity (AC50) (on Mu-type opioid receptor [10]; in assay [11]) was over 30 µM each time.
With `CCCCc1oc2ccccc2c1C(=O)c1cc(I)c(OCCN(CC)CC)c(I)c1` [AMIODARONE], the AC50 in assay [12] is 2900 nM; in [4], 4.1 µM; in assay [13], 23.9 µM; on D(3) dopamine receptor [8], 1500 nM; on Histamine H3 receptor [14] it was 2390 nM; in assay [15], 9.27 µM.
`O=C1CCc2ccc(OCCCCN3CCN(c4cccc(Cl)c4Cl)CC3)cc2N1` [ARIPIPRAZOLE]: the AC50 is 6.77 µM in assay [13]; 6.6 nM in assay [16]; 289 nM in [17]; over 10 µM in assay [18]; 1560 nM in [19]; 18 µM in [15]. Moreover, the AC50 in [20] is over 50 µM; in assay [21], 3.46 µM; in [22], 5.67 µM; in [23], over 10 µM.
The molecule `CN1CCN(CCCN2c3ccccc3Sc3ccc(Cl)cc32)CC1` [PROCHLORPERAZINE] came in with an AC50 at Estrogen receptor of over 20 µM.
Regarding `CC(C)NCC(O)COc1cccc2ccccc12` (stereo unspecified) [PROPRANOLOL], the figures for the AC50 in assay [24] and in assay [25] were over 100 µM and 20.6 µM, respectively.
`[H]/N=C(/N)N/C(=N/[H])NCCc1ccccc1` [PHENFORMIN] registered a half-maximal activity concentration (AC50) in [26] of over 10 µM.
As to `CCN(CC)CC#CCOC(=O)C(O)(c1ccccc1)C1CCCCC1` (stereo unspecified) [OXYBUTYNIN], the AC50 on Bile salt export pump amounted to 37 µM; in [17], 89.5 nM; at Mu-type opioid receptor [27], 23.4 µM; on D(3) dopamine receptor [28], 99.6 nM; in assay [19], 3080 nM; at Adenosine receptor A3, 19.6 µM. In addition, the values for the AC50 (in [29]; on Histamine H3 receptor [30]) were 24.5 µM and 24.6 µM, respectively.
